Reference: patent US11192863B2, “Antiviral compounds and methods” (Biotron Limited, priority 2003, dated 2021)
Structures can show the parent of a compound that is named as a salt.

Legend:
[1] = molecular target: HCV p7 protein (Hepatitis C virus genotype 1a, UniProt P27958, L790F); conditions: halo of growth score; E. coli expressing p7 at 37° C.
[2] = molecular target: MHV E protein (Murine coronavirus, UniProt P0C2R0); conditions: halo of growth score; E. coli expressing E protein at 37° C.

N=C(N)NC(=O)/C=C/c1ccoc1 [trans-3-Furanacryoylguanidine, trans-3-furanacryoylguanidine]
HCV p7 protein Inhibition (score/# of times tested) [1]: 1.38/1 score

NC(N)=NC(=O)c1nc(I)c(N)nc1N [6-Iodoamiloride]
HCV p7 protein Inhibition (score/# of times tested) [1]: 1.13/1 score

N=C(N)NC(=O)/C=C/c1cccc2ccccc12 [trans-3-(1-napthyl)acryloylguanidine]
MHV E protein Inhibition (score) [2]: 2.8 score | HCV p7 protein Inhibition (score/# of times tested) [1]: 2.44/2 score

N=C(N)NC(=O)/C=C/c1c(F)cccc1Cl [2-chloro-6-fluorocinnamoylguanidine]
HCV p7 protein Inhibition (score/# of times tested) [1]: 0.88/1 score

NC(N)=NC(=O)c1nc(Cl)c(Nc2ccc(F)cc2)nc1N [5-(4-fluorophenyl)amiloride]
MHV E protein Inhibition (score) [2]: 0.5 score | HCV p7 protein Inhibition (score/# of times tested) [1]: 1.0/1 score

NC(N)=NC(=O)c1ccc(Oc2ccccc2)cc1 [(4-Phenoxybenzoyl)guanidine]
MHV E protein Inhibition (score) [2]: 2.4 score | HCV p7 protein Inhibition (score/# of times tested) [1]: 2.63/1 score

N=C(NC(=O)c1ccc2cc(O)ccc2c1)Nc1ccccc1 [N-(6-Hydroxy-2-napthoyl)-N′-phenylguanidine]
HCV p7 protein Inhibition (score/# of times tested) [1]: 1.38/1 score

N=C(N)NC(=O)/C=C/c1ccc(O)cc1 [(4-Hydroxycinnamoyl)guanidine]
MHV E protein Inhibition (score) [2]: 0.7 score | HCV p7 protein Inhibition (score/# of times tested) [1]: 1.63/1 score

N=C(N)NC(=O)/C=C/c1ccc(Cl)cc1Cl [2,4-dichlorocinnamolyguanidine]
MHV E protein Inhibition (score) [2]: 0.8 score | HCV p7 protein Inhibition (score/# of times tested) [1]: 0.38/1 score

N=C(N)NC(=O)/C=C/c1cccc(OC(F)(F)F)c1 [3-(trifluoromethoxy)cinnamoylguanidine]
MHV E protein Inhibition (score) [2]: 4.1 score | HCV p7 protein Inhibition (score/# of times tested) [1]: 2.26/2 score

N=C(N)NC(=O)/C=C/c1ccccc1[N+](=O)[O-] [(2-Nitrocinnamoyl)guanidine]
HCV p7 protein Inhibition (score/# of times tested) [1]: 1.14/1 score

Cl.NC(N)=NC(=O)c1nc(Cl)c(N)nc1N [Amiloride•HCl, reference compound]
HCV p7 protein Inhibition (score/# of times tested) [1]: 0.5/2 score

N=C(N)NC(=O)c1ccc2ccccc2c1Br [1-bromo-2-napthoylguanidine]
MHV E protein Inhibition (score) [2]: 0.2 score | HCV p7 protein Inhibition (score/# of times tested) [1]: 0.75/1 score

Cc1cccc(/C=C/C(=O)NC(=N)N)c1C [2,3-dimethylcinnamoylguanidine]
MHV E protein Inhibition (score) [2]: 1.0 score | HCV p7 protein Inhibition (score/# of times tested) [1]: 3.88/2 score

COc1ccccc1/C=C/C(=O)NC(=N)N [(2-Methoxycinnamoyl)guanidine]
MHV E protein Inhibition (score) [2]: 0.8 score | HCV p7 protein Inhibition (score/# of times tested) [1]: 0.75/1 score

COc1cc(/C=C/C(=O)NC(=N)N)cc(OC)c1OC [3,4,5-trimethoxycinnamoylguanidine]
MHV E protein Inhibition (score) [2]: 0.1 score | HCV p7 protein Inhibition (score/# of times tested) [1]: 0.71/1 score

N=C(N)NC(=O)/C=C/c1c(Cl)cccc1Cl [2,6-dichlorocinnamoylguanidine]
MHV E protein Inhibition (score) [2]: 1.2 score | HCV p7 protein Inhibition (score/# of times tested) [1]: 3.00/3 score

NC(N)=NC(=O)c1cccc2ccccc12 [1-napthoylguanidine]
MHV E protein Inhibition (score) [2]: 1.7 score | HCV p7 protein Inhibition (score/# of times tested) [1]: 2.25/1 score

N/C(=N\C(=O)c1nc(Cl)c(N)nc1N)NCc1ccccc1 [Benzamil hydrochloride, N-Benzyl-N′-(3,5-diamino-6-chloro-pyrzine-2-carbonyl)-guanidine]
HCV p7 protein Inhibition (score/# of times tested) [1]: 2.0/1 score

CCOc1ccc(/C=C/C(=O)NC(=N)N)cc1 [4-ethoxycinnamoylguanidine]
MHV E protein Inhibition (score) [2]: 0.4 score | HCV p7 protein Inhibition (score/# of times tested) [1]: 1.63/1 score

Cc1cc(C)c(C)c(/C=C/C(=O)NC(=N)N)c1C [2,3,5,6,-tetramethylcinnamoylguanidine]
MHV E protein Inhibition (score) [2]: 0.4 score | HCV p7 protein Inhibition (score/# of times tested) [1]: 1.51/2 score

CN(C)c1nc(N)c(C(=O)N=C(N)N)nc1Cl [5-(N,N-Dimethyl)amiloride hydrochloride]
MHV E protein Inhibition (score) [2]: 0.5 score | HCV p7 protein Inhibition (score/# of times tested) [1]: 1.0/1 score

COc1ccc(/C=C/C(=O)NC(=N)N)cc1 [(4-Methoxycinnamoyl)guanidine]
MHV E protein Inhibition (score) [2]: 0.3 score | HCV p7 protein Inhibition (score/# of times tested) [1]: 1.88/1 score

N/C(=N\C(=O)c1nc(Cl)c(N)nc1N)NCc1ccc(Cl)cc1Cl [2′4 DichloroBenzamil HCl]
HCV p7 protein Inhibition (score/# of times tested) [1]: 1.88/1 score

N=C(N)NC(=O)/C=C/c1ccc(F)c(F)c1 [3,4-difluorocinnamoylguanidine]
MHV E protein Inhibition (score) [2]: 0.4 score | HCV p7 protein Inhibition (score/# of times tested) [1]: 0.13/1 score

N=C(N)NC(=O)Cc1cccc2ccccc12 [2-(1-napthyl)acetoylguanidine]
MHV E protein Inhibition (score) [2]: 0.4 score | HCV p7 protein Inhibition (score/# of times tested) [1]: 1.14/1 score

CC(C)c1cccc(/C=C/C(=O)NC(=N)N)c1.Cl [3-isopropylcinnamoylguanidine hydrochloride]
MHV E protein Inhibition (score) [2]: 4.2 score | HCV p7 protein Inhibition (score/# of times tested) [1]: 2.00/1 score

Cc1ccccc1/C=C/C(=O)NC(=N)N [2-methylcinnamoylguanidine]
MHV E protein Inhibition (score) [2]: 1.2 score | HCV p7 protein Inhibition (score/# of times tested) [1]: 0.75/1 score

CC(C)(C)c1cccc(/C=C/C(=O)NC(=N)N)c1 [3-t-butylcinnamoylguanidine]
MHV E protein Inhibition (score) [2]: 4.0 score | HCV p7 protein Inhibition (score/# of times tested) [1]: 2.23/2 score

NC(N)=NC(=O)/C=C/c1ccc(Cl)cc1 [(4-Chlorocinnamoyl)guanidine]
MHV E protein Inhibition (score) [2]: 1.3 score | HCV p7 protein Inhibition (score/# of times tested) [1]: 3.16/4 score

N=C(N)NC(=O)CCc1ccccc1 [(3-phenylpropanoyl)guanidine]
HCV p7 protein Inhibition (score/# of times tested) [1]: 1.0/1 score

N=C(N)NC(=O)COc1ccc(Cl)cc1 [[(4-Chlorophenoxy-acetyl]guanidine, (4-Chlorophenoxy-acetyl)guanidine]
HCV p7 protein Inhibition (score/# of times tested) [1]: 1.0/1 score

N=C(N)NC(=O)/C=C/c1ccc(-c2ccccc2)cc1 [4-phenylcinnamoylguanidine]
HCV p7 protein Inhibition (score/# of times tested) [1]: 1.5/1 score

CCCCC/C=C/c1cccc(/C=C/C(=O)NC(=N)N)c1 [3-(trans-hept-1-en-1-yl)cinnamoylguanidine]
HCV p7 protein Inhibition (score/# of times tested) [1]: 0.50/1 score

C/C(=C\c1ccc(N(C)C)cc1)C(=O)NC(=N)N [[(E)-3-(4-Dimethylaminophenyl)-2-methylacryloyl]guanidine]
HCV p7 protein Inhibition (score/# of times tested) [1]: 0.03/4 score

N=C(N)NC(=O)/C=C/c1ccc([N+](=O)[O-])cc1 [(4-Nitrocinnamoyl)guanidine]
HCV p7 protein Inhibition (score/# of times tested) [1]: 0.25/1 score

N/C(=N\C(=O)c1nc(Cl)c(N)nc1N)Nc1ccccc1 [Phenamil methanesulfonate salt, N-(3,5-Diamino-6-chloro-pyrazine-2-carbonyl)-N′-phenylguanidine]
HCV p7 protein Inhibition (score/# of times tested) [1]: 0.5/1 score

N=C(N)NC(=O)Cc1ccc2ccccc2c1 [2-(2-napthyl)acetoylguanidine]
MHV E protein Inhibition (score) [2]: 0.4 score

N=C(NC(=O)/C=C/c1ccccc1)Nc1ccccc1 [N-(cinnamoyl)-N′phenylguanidine, N-(cinnamoyl)-N′-phenylguanidine]
HCV p7 protein Inhibition (score/# of times tested) [1]: 2.13/1 score

N=C(N)NC(=O)/C=C/c1ccco1 [(2-Furanacryloyl)guanidine]
HCV p7 protein Inhibition (score/# of times tested) [1]: 1.38/1 score
